Test results from patent US20260256934A1, “ANTIBODY-DRUG CONJUGATE INCLUDING MUTANT Fc REGION” (DAIICHI SANKYO COMPANY, LIMITED, priority 2022, published 2026).

Test system: CT26.WT cells
Assay: Tumor rechallenge test with CT26.WT cells in BALB/c mouse with complete tumor regression
Type: in vivo
Method: Substantially the same anti-tumor test as in (Test Example 3) Anti-Tumor Test (1) was conducted.
Substantially the same anti-tumor test as in (Test Example 5) Anti-Tumor Test (3) was conducted.

Molecule | tumor growth after rechallenge (tumor volume) (1.0 mg/kg once on Day 7, CT26.WT rechallenge left axillary region Day 80, results of Day 99, versus age-matched untreated control) | tumor growth after rechallenge (tumor volume) (1.0 mg/kg or 2.0 mg/kg once on Day 7, CT26.WT rechallenge Day 80, results of Day 100, versus age-matched control)
anti-EGFR antibody 1-CDN conjugate 1 (conjugate) heavy: QVQLQESGPGLVKPSETLSLTCTVSGGSVSSGDYYWTWIRQSPGKGLEWIGHIYYSGNTNYNPSLKSRLTISIDTSKTQFSLKLSSVTAADTAIYYCVRDRVTGAFDIWGQGTMVTVSSASTKGPSVFPLAPSSKSTSGGTAALGCLVKDYFPEPVTVSWNSGALTSGVHTFPAVLQSSGLYSLSSVVTVPSSSLGTQTYICNVNHKPSNTKVDKRVEPKSCDKTHTCPPCPAPEAAGGPSVFLFPPKPKDTLMISRTPEVTCVVVGVSHEDPEVKFNWYVDGVEVHNAKTKPREEQYNSTYRVVSVLTVLHQDWLNGKEYKCKVSNKALPAPIEKTISKAKGQPREPQVYTLPPSREEMTKNQVSLTCLVKGFYPSDIAVEWESNGQPENNYKTTPPVLDSDGSFFLYSKLTVDKSRWQQGNVFSCSVMHEALHNHYTQKSLSLSPGK light: DIQMTQSPSSLSASVGDRVTITCQASQDISNYLNWYQQKPGKAPKLLIYDASNLETGVPSRFSGSGSGTDFTFTISSLQPEDIATYFCQHFDHLPLAFGGGTKVEIKRTVAAPSVFIFPPSDEQLKSGTASVVCLLNNFYPREAKVQWKVDNALQSGNSQESVTEQDSKDSTYSLSSTLTLSKADYEKHKVYACEVTHQGLSSPVTKSFNRGEC | markedly inhibited | 
anti-EGFR antibody 1-CDN conjugate 2 (conjugate) heavy: QVQLQESGPGLVKPSETLSLTCTVSGGSVSSGDYYWTWIRQSPGKGLEWIGHIYYSGNTNYNPSLKSRLTISIDTSKTQFSLKLSSVTAADTAIYYCVRDRVTGAFDIWGQGTMVTVSSASTKGPSVFPLAPSSKSTSGGTAALGCLVKDYFPEPVTVSWNSGALTSGVHTFPAVLQSSGLYSLSSVVTVPSSSLGTQTYICNVNHKPSNTKVDKRVEPKSCDKTHTCPPCPAPEAAGGPSVFLFPPKPKDTLMISRTPEVTCVVVGVSHEDPEVKFNWYVDGVEVHNAKTKPREEQYNSTYRVVSVLTVLHQDWLNGKEYKCKVSNKALPAPIEKTISKAKGQPREPQVYTLPPSREEMTKNQVSLTCLVKGFYPSDIAVEWESNGQPENNYKTTPPVLDSDGSFFLYSKLTVDKSRWQQGNVFSCSVMHEALHNHYTQKSLSLSPGK light: DIQMTQSPSSLSASVGDRVTITCQASQDISNYLNWYQQKPGKAPKLLIYDASNLETGVPSRFSGSGSGTDFTFTISSLQPEDIATYFCQHFDHLPLAFGGGTKVEIKRTVAAPSVFIFPPSDEQLKSGTASVVCLLNNFYPREAKVQWKVDNALQSGNSQESVTEQDSKDSTYSLSSTLTLSKADYEKHKVYACEVTHQGLSSPVTKSFNRGEC |  | markedly inhibited
